PMC4752459
Results are given in words; binding and its absence hold for the method and conditions named. In cells and extracts the contact can be indirect.

T1: Shs1-CCG (S. cerevisiae) (UniProt Q07657)
T1 sequence: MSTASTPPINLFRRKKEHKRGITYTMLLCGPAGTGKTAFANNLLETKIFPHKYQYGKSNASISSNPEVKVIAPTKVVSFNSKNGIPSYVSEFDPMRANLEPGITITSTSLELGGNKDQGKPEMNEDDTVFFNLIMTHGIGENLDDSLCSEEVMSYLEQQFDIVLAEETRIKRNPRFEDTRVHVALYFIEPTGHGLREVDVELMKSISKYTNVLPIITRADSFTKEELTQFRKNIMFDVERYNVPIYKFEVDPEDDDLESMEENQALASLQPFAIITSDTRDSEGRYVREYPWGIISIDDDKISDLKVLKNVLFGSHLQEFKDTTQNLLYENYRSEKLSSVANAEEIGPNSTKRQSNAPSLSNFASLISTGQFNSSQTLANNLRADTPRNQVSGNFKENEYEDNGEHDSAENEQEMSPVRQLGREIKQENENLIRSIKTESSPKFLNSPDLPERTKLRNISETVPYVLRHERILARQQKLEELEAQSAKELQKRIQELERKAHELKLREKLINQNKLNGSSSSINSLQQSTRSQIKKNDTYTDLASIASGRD

B1: Nub-Bni4 (protein, UniProt P53858 1-892)
chain: MSDSISDSKSSELLNSTFYSSTSINTLDHARTFRNSLILKEISDQSLNSSIKPCESVLDRDVESSVLQRSFGESNARDSEVQTVNMTTSPSLSALADILNERSKYADQKTRKAQNIESSIIEEEEEAEEQNNSINYHEDITGSRLSVREEANENLAMTSPNLIDIDGSNSIQVAPLSLPSFEEPDFLSTPRVKPDSQGPRSKVSTRRTILERDNNLPVKREENTIINSETESTTHSAPFLKEDPKPSPPSSKLYNPKVRLNKAEARKYTDSSAQRTTSAGSVLEDTSMHKKKKSIFSFLKKKEPKPVIGNNSVTNEKNKMSSSSTFSMNIQTSLKTPEKLKKKSHSSSSIFNSFLKGKIETSDSPRKEPMRQKKRTPKSKDKKQDTEQIIDAASVLSTESPLLRKNHDDTPVKIDHVTRSIDQRKPTPLNMDLILGGDKQINTPLQEHVREDDDAKNDLQLPTKDNFLSLDYEAPSPAFSKHDTGEVLFPKFLDNHEVDSIVSLERTRSTKSNKRSSMNSQRRSLTDTLSIKAQSEGMFITEASSVVLSTPDLTKSPASSILKNGRFEYSDNFSREHSYEGTTNEDFLDIKDDSGPLKKDDIFLESIEQKFDQLVMASDEEKTEVERDVPKPREEPLKKDSERQSVFADDDNELISDIMEFASFINFGDDDLNLDLDLGDTTASYATETPEPVGNDEVNRSGTFDTRNNKEDSYKERETQSYSAAGATTYGDERQGQLHTFEQDGSEINDNEFENEDFNKHIEQPIEVTPRNNAYLPEFEPNRPVSMSFKGLKAPRMNTSFIDSMTPDSPVKSDLTSLGEVYVNSNNDQGVRFSSQIILYDTYGEFEYDRHPEISTCNQLTPQLAQMIKLELNELKSAMEVHDDSRCYTHFY
B2: Nub-Ppz2 (protein, UniProt P33329 1-710)
chain: MGNSGSKQHTKHNSKKDDHDGDRKKTLDLPPLTKSDTTHSLKSSRSLRSLRSKRSEASLASNVQAQTQPLSRRSSTLGNGNRNHRRSNNAPITPPNNHYLTSHPSSSRRLSSSSRRSSMGNNNNSELPPSMIQMEPKSPILKNSTSMHSTSSFNSYENALTDDDDDRGDDGGESPSMAKVTRINTSSSADRGSKRTPLRRHNSLQPEKGVTGFSSTSSKLRRRSDNTLPASYPLNAEAGGNGSDYFSNRSNSHASSRKSSFGSTGNTAYSTPLHSPALRKMSSRDNDDSGDNVNGRGTSPIPNLNIDKPSPSASSASKREYLSAYPTLAHRDSSSSLSPRGKGQRSSSSSSSSQRIYVSPPSPTGDFVHGSCADGDNGSRTNTMVEMKRKKPVRPVDIDEIIQRLLDAGYAAKRTKNVCLKNSEIIQICHKARELFLAQPALLELSPSVKIVGDVHGQYADLLRLFTKCGFPPMANYLFLGDYVDRGKQSLETILLLLCYKIKYPENFFLLRGNHECANVTRVYGFYDECKRRCNIKIWKTFVDTFNTLPLAAIVTGKIFCVHGGLSPVLNSMDEIRHVSRPTDVPDFGLINDLLWSDPTDSSNEWEDNERGVSFCYNKVAINKFLNKFGFDLVCRAHMVVEDGYEFFNDRSLVTVFSAPNYCGEFDNWGAVMTVSEGLLCSFELLDPLDSTALKQVMKKGRQERKLANR
B3: Nub-Coy1 (protein, UniProt P34237 1-679)
chain: MDTSVYSHALDIWAKADLTNLQRELDADVIEIKDKETLSLNSRKSLATETKKFKKLEPEEKLNNVNKIIKQYQREIDNLTQRSKFSEKVLFDVYEKLSEAPDPQPLLQSSLEKLGKIDDSKELKEKISYLEDKLAKYADYETLKSRLLDLEQSSAKTLAKRLTAKTQEINSTWEEKGRNWKEREADLLKQLTNVQEQNKALEAKISKNIDIEGNGNEDGDQENNQKEVSTRIAEYNLVTQELETTQARIYQLEKRNEELSGALAKATSEAEKETELHAKELKLNQLESENALLSASYEQERKSTSHAINELKEQLNSVVAESESYKSELETVRRKLNNYSDYNKIKEELSALKKIEFGVNEDDSDNDIRSEDKNDNTFESSLLSANKKLQATLAEYRSKSTAQEEERNELKKSVDQLKQQIATLKEANEKLETDLEKVENVSPHFNETASMMSGVTRQMNNRTSHKMSPTSSIIGIPEDGELSGNQSTILPIVTKQRDRFRSRNMDLEKQLRQGNSEKGKLKLEISKLKGDNTKLYERIRYLQSYNNNNAPVNQSTERIDVESQYSRVYDESLHPMANFRQNELNHYKNKKLSALEKLFSSFAKVILQNKMTRMVFLFYCIGLHGLVFMMSMYVINISGYMTPEVGIVQSAKSSSNLNGGLGGAEKVAAGVGSVHGINR
B4: Nub-Nap1 (protein, UniProt P25293 1-417)
chain: MSDPIRTKPKSSMQIDNAPTPHNTPASVLNPSYLKNGNPVRAQAQEQDDKIGTINEEDILANQPLLLQSIQDRLGSLVGQDSGYVGGLPKNVKEKLLSLKTLQSELFEVEKEFQVEMFELENKFLQKYKPIWEQRSRIISGQEQPKPEQIAKGQEIVESLNETELLVDEEEKAQNDSEEEQVKGIPSFWLTALENLPIVCDTITDRDAEVLEYLQDIGLEYLTDGRPGFKLLFRFDSSANPFFTNDILCKTYFYQKELGYSGDFIYDHAEGCEISWKDNAHNVTVDLEMRKQRNKTTKQVRTIEKITPIESFFNFFDPPKIQNEDQDEELEEDLEERLALDYSIGEQLKDKLIPRAVDWFTGAALEFEFEEDEEEADEDEDEEEDDDHGLEDDDGESAEEQDDFAGRPEQAPECKQS
B5: Nub-Prk1 (protein, UniProt P40494 1-810)
chain: MNTPQISLYEPGTILTVGSHHAKIIKYLTSGGFAQVYTAEISPPDPYSNANIACLKRVIVPHKQGLNTLRAEVDAMKLLRNNKHVVSYIDSHAARSVNGIAYEVFVLMEFCERGGLIDFMNTRLQNRLQESEILEIMSQTVQGITAMHALQPPLIHRDIKIENVLISHDGLYKVCDFGSVSGVIRPPRNTQEFNYVQHDILTNTTAQYRSPEMIDLYRGLPIDEKSDIWALGVFLYKICYYTTPFEKSGEAGILHARYQYPSFPQYSDRLKNLIRLMLMEAPSQRPNICQVLEEVSRLQNKPCPIRNFYLLRAMNQNANTQLAGEPSSTTYVPTQKFIPVQSLQSINQPPNMMPVTHVSTTPNLGTFPISINDNNKTEVTAHAGLQVGSHSNLTSPLMKTKSVPLSDEFASLYYKELHPFQKSQTFKSVESFQSPQRKSMPPLSLTPVNNDIFDRVSAINRPNNYVDSETQTIDNMAVPNLKLSPTITSKSLSSTKEIAAPDNINGSKIVRSLSSKLKKVITGESRGNSPIKSRQNTGDSIRSAFGKLRHGFTGNSVNNSRSASFDNNNVNGNGNNTNRRLVSSSTSSFPKFNSDTKRKEESDKNQRLEKRRSMPPSILSDFDQHERNNSRTGSRDYYRSHSPVKKTQASAKTTSKPTLIPDNGNVNINQEKKESIQRRVHNLLKSSDDPVTYKSASGYGKYTDIGTETSNRHSSVRITPITEEKFKKTLKDGVLDIKTKSNGKDKSRPPRPPPKPLHLRTEIQKIRNFSRLQSKKLPIERISSEATETIVDVNVDDLEADFRKRFPSKV

biological target: T1, Shs1-CCG (S. cerevisiae); assay: split reporter; steady-state SPLIFF (split-ubiquitin, mCherry-Cub-GFP): diploid cells with Shs1-CCG and a Nub fusion, 100 μM Cu2+, GFP/mCherry ratio at the bud neck; strong > 70%, weak > 30%, below 30% CCG to CC conversion non-interacting

**Q.** Which binding does the source give for B1 here?
**A.** no binding

**Q.** B2 was tested. Which binding did it give?
**A.** no binding

**Q.** With B3 as the binder, how does the binding read?
**A.** no binding

**Q.** How did the binding turn out when B4 was run?
**A.** no binding

**Q.** B5 was tested. Which binding did it give?
**A.** no binding
